Out of some 310,000 compounds screened, about 2,200 (0.71%) showed an effect of 50% or more. Effects have a minus sign here. This is one part of the list.
Target: human ether-à-go-go-related gene (hERG) potassium channel (human, UniProt Q12809)
Experiment: primary screen, population patch clamp on CHO cells stably expressing hERG

Chain of human ether-à-go-go-related gene (hERG) potassium channel (Q12809 whole entry, looked up): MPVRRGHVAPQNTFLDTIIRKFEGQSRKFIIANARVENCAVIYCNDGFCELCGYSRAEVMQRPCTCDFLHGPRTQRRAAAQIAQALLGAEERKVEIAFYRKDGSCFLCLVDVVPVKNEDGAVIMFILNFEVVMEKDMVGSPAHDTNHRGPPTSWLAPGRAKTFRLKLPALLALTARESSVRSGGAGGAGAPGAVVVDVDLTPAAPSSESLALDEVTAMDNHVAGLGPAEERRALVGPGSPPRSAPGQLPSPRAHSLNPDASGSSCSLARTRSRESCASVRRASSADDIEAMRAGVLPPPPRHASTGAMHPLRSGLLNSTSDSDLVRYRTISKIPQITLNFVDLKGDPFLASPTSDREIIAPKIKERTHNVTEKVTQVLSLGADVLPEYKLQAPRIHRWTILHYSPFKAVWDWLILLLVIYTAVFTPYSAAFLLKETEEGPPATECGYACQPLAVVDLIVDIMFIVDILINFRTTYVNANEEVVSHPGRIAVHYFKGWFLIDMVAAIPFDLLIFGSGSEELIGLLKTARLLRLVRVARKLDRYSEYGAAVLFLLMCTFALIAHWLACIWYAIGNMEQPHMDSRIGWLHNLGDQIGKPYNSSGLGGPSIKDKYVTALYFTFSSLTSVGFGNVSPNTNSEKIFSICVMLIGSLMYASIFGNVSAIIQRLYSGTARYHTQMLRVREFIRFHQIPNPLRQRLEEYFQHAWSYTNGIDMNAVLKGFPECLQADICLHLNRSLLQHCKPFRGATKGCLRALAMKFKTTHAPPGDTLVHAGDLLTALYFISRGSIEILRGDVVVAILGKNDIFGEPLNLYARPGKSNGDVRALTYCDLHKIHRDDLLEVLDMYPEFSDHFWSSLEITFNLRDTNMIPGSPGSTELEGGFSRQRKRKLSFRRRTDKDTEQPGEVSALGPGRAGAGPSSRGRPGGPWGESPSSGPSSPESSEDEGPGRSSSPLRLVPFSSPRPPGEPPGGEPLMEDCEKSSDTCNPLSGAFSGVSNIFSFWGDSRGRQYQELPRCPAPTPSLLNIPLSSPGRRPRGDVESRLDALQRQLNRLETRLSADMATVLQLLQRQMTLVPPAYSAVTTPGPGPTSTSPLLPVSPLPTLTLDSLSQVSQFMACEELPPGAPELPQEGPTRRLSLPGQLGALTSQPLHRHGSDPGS

Row | Structure (SMILES) | hERG current change (%, negative = inhibition) at 1uM
1 | CC1CC(OC(=O)C(O)c2ccccc2)CC(C)(C)N1C.Cl (centres unmarked) | 10.1%
2 | COc1ccc2c(c1)Cc1sc(NC(=O)c3cccs3)nc1-2 | 2.75%
3 | Cc1onc(-c2ccccc2Cl)c1C(=O)N[C@@H](C)c1ccccc1 | 11.2%
4 | CC1(C)Cc2c(sc(NC(=O)c3ccc(S(=O)(=O)N4CCCCCC4)cc3)c2C#N)C(C)(C)N1 | -6.9%
5 | CN(C)CC(=O)Nc1ccc(S(N)(=O)=O)cc1 | 16.2%
6 | CC(=O)N1c2ccc(S(=O)(=O)N(C)CC(=O)Nc3cccc(C)c3)cc2CC1C (centres unmarked) | 13.4%
7 | CCN(C(=O)CSc1nc(N)cc(=O)[nH]1)c1c(N)n(Cc2ccccc2)c(=O)[nH]c1=O | 8.53%
8 | CCOC(=O)C(C(=O)OCC)C(C)(C)/C(C)=N\Nc1ccc([N+](=O)[O-])cc1[N+](=O)[O-] | -6.17%
9 | O=c1[nH]c(-c2ccccc2)ncc1Oc1ccccc1 | 12.4%
10 | CCc1cc(C(=O)N(CCCOC)c2c(N)n(Cc3ccccc3)c(=O)[nH]c2=O)sc1C | -9.05%
11 | O=C(O)c1cc(-c2ccc(/C=C3\NC(=O)N(c4ccccc4)C3=O)o2)ccc1Cl | 2.1%
12 | CCOC(=O)Nc1c(Cl)n(C)c(=O)n(C)c1=O | 14.1%
13 | O=C(NCC1OCCCN1S(=O)(=O)c1cc(F)ccc1F)C(=O)NC1CCCC1 (centres unmarked) | 4.53%
14 | Cc1nnsc1C(=O)N1CCCC(Nc2ccc(C(C)C)cc2)C1 (centres unmarked) | -16.3%
15 | Cc1c(C=C2C(=O)NC(=O)NC2=O)c(=O)n(-c2ccccc2)n1C | 12.5%
16 | COc1ccc(C(=O)NC2CCCCCC2)cc1S(=O)(=O)N1CCCC1 | 15.1%
17 | Cc1ccc(CNC(=O)CCNS(=O)(=O)c2cccc3nsnc23)cc1 | 11.4%
18 | O=C(CCn1cnc2ccccc2c1=O)Nc1nc2c(s1)CCCC2 | 7.08%
19 | CCNC(=S)N(CCN(C)C)Cc1cc2cc(OCC)ccc2[nH]c1=O | 2.14%

Row | Structure (SMILES) | hERG current change (%, negative = inhibition) at 1uM
20 | Cn1c(SCc2ccccc2)nc(C(F)(F)F)cc1=O | 0.229%
21 | CN(Cc1ccon1)C(=O)CC1C(=O)NCCN1CC1CCCCC1 (centres unmarked) | 9.09%
22 | Cc1cccc(C)c1NC(=O)COC(=O)CCc1c[nH]c2ccccc12 | 10.5%
23 | COC(=O)C1=C(C)NC(=S)NC1c1sccc1C (centres unmarked) | 6.84%
24 | Cc1ccc(CS(=O)(=O)CCC(=O)NCCc2ccccc2)cc1 | 9.48%
25 | CC1CCCC(C)N1C(=O)COc1ccc(C(=O)Nc2ccccc2N2CCOCC2)cc1 (centres unmarked) | 7.19%
26 | Cc1nc2ccc(F)cc2cc1C(=O)Nc1ccc(Cl)c(Cl)c1 | 11.6%
27 | COCCNC(=O)c1ccc2c(=O)n(Cc3ccco3)c(SCC(=O)NC3CCCC3)nc2c1 | -2.89%
28 | Cc1[nH]c(=O)nc(SCc2ccc(Cl)c(Cl)c2)c1C#N | 13.2%
29 | Cn1c(=O)[nH]c(=O)c2c1nc(NCCCO)n2CCCc1ccccc1 | 3.04%
30 | CC1(c2ccccc2)NC(=O)N(CC(=O)NCc2cccc(Cl)c2)C1=O (centres unmarked) | 9.52%
31 | COc1ccccc1NS(=O)(=O)c1cccc(C(=O)NNC(=O)c2ccc(NC(C)=O)cc2)c1 | 13.9%
32 | COc1ccc(CCC(C)NC2CCCCCCC2)cc1 (centres unmarked) | -5.51%
33 | O=C(COc1ccc(Cl)cc1)Nc1cccc(-c2ccc(N3CCOCC3)nn2)c1 | 11.1%
34 | Cc1ccc(NC(=O)c2cc3cccc([N+](=O)[O-])c3[nH]2)cc1 | 15.1%
35 | COc1ccccc1N1CCN(Cc2cnc(-c3ccccc3)[nH]2)CC1 | 2.21%
36 | O=C(O)C(=O)O.c1ccc(-c2ccccc2OCCOCCN2CCOCC2)cc1 | 11.3%
37 | Cc1[nH]nc2c1/C(=N\O)CCC2 | 1.4%
38 | Oc1ccc(F)cc1-c1cc(-c2ccc3c(c2)OCCO3)n[nH]1 | 13.3%

Row | Structure (SMILES) | hERG current change (%, negative = inhibition) at 1uM
39 | Cn1nnc2cc(C(=O)Nc3cccnc3)ccc21 | 7.75%
40 | CCOc1ccc(CN(C)C(=O)[C@H](Cc2ccccc2)NC(=O)OCc2ccccc2)cc1OC | 4.17%
41 | CCCCN1C(=O)CCC(C(=O)O)C1c1ccc([N+](=O)[O-])cc1 (centres unmarked) | 13.8%
42 | O=C1[C@H]2[C@H](ON3CCCC[C@H]23)C(=O)N1c1ccc(Cl)cc1 | 14.2%
43 | CC(Oc1ccc(Cl)cc1)c1ccnn1S(=O)(=O)c1ccccc1 (centres unmarked) | 9.56%
44 | COc1cc(C(=O)N2CCC(c3nc(-c4cccnc4)no3)CC2)cc(OC)c1OC | 8.83%
45 | O=c1ccc(NS(=O)(=O)c2ccc(Cl)cc2)cn1Cc1ccc(Cl)c(Cl)c1 | 10.9%
46 | Nc1c(O)cccc1C(=O)O | 16.2%
47 | CCCN1C(=O)c2ccccc2NC1c1ccc(OC)c(CSc2ccccn2)c1 (centres unmarked) | 4.32%
48 | CCOCc1nnc(NC(=O)CSc2ccc(C)cc2)s1 | 13.1%
49 | CCCNC(=O)c1ccccc1N1CCN(CCCCN2C(=O)C3CCCCN3C2=O)CC1.Cl.O (centres unmarked) | 2.33%
50 | O=C(/C=C/c1ccccc1)c1ccoc1 | 4.55%
51 | COC(=O)c1ccccc1NC(=O)c1cn(-c2ccc(C)c(C)c2)c(=O)c2ccccc12 | 18.4%
52 | CC(=O)Nc1cc(C(=O)CSc2nnc(C3CC3)n2C2CC2)ccc1O | 8.98%
53 | Cc1cccc(/C=C/C(=O)c2ccc(NC3=NCCCS3)cc2)c1 | 20%
54 | CC(C)c1ccc(CCNC(=O)c2cccc(S(=O)(=O)N3CCN(C)CC3)c2)cc1 | 4.31%
55 | O=[N+]([O-])c1ccc2c(c1)C=C1CCCCC1(N1CCCC1)O2 (centres unmarked) | 1.26%
56 | CC1=NOC(=O)/C1=C\c1ccc(-c2cccc(Cl)c2)o1 | 12%

Source: publication PMC4336329 (PLoS ONE, 2015)
